Measurements from PMC4336329 (PLoS ONE, 2015).
About 14,000 (4.5%) of roughly 310,000 compounds showed an effect of 50% or more. Effects have a minus sign here. The list shows a part of the results.

What follows are compounds tested against human ether-à-go-go-related gene (hERG) potassium channel (human, UniProt Q12809) (assay: primary screen, population patch clamp on CHO cells stably expressing hERG).
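Further: peak tail current of the secondary pulse compared with the same well before compound.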

Sequence of human ether-à-go-go-related gene (hERG) potassium channel (Q12809 whole entry, looked up): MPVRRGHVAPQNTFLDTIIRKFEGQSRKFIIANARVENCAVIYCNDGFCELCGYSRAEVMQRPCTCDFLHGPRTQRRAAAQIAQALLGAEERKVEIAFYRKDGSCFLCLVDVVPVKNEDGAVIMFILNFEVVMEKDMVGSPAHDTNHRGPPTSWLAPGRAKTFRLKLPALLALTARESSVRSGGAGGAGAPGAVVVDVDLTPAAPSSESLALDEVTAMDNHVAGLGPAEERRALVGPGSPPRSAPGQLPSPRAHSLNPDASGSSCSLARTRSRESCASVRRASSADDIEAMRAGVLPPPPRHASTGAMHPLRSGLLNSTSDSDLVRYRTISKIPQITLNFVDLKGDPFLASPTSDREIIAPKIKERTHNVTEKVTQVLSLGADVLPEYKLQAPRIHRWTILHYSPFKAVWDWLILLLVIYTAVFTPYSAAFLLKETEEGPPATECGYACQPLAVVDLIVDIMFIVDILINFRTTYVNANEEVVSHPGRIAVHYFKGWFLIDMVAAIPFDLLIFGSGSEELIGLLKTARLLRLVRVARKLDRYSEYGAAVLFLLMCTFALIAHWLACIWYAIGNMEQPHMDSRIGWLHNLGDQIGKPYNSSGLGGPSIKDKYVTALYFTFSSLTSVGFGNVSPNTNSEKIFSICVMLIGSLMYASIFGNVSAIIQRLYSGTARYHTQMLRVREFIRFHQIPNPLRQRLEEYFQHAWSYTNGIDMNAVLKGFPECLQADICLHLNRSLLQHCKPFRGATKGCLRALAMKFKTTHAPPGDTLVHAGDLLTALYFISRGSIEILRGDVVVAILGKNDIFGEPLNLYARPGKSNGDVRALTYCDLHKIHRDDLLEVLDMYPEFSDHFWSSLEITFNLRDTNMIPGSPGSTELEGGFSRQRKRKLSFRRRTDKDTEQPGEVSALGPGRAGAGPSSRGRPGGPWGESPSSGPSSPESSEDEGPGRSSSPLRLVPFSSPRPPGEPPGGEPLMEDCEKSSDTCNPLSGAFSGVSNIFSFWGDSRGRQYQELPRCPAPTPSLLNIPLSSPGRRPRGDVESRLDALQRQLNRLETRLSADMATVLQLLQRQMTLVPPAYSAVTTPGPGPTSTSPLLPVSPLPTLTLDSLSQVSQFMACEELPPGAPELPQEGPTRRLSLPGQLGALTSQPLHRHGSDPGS

Structure (SMILES)	hERG current change (%, negative = inhibition) at 10uM [%]
Cc1ccc(NC(=O)CSC2=NN3CCCC(=O)N=C3S2)c(C)c1	-7.61
C=CCn1c(=O)c(C#N)cc2c(=O)n3ccccc3nc21	-1.57
O=C(O)CCc1nn2cnc3sc4c(c3c2nc1=O)CCCC4	-2
Cc1ccc(S(=O)(=O)N2CCC(C(=O)NCC3CC3)CC2)cc1	-10.3
O=C(Nc1ccc(Br)cc1F)c1ccc2c(c1)OCCO2	12.3
CCN(CC)CCn1c(NCc2cccc(OC)c2OC)nc2ccccc21	-47
Cc1ccc(C)c(OCC(O)CNC2CCCC2)c1.Cl (stereo not shown)	8.8
Cc1c(C(=O)OCC(=O)N2CC(=O)Nc3ccccc32)oc2ccccc12	18.4
Cc1cc2[nH]c3ccccc3c2cn1	-12.3
CCN1CCN(c2ccc([N+](=O)[O-])cc2C#N)CC1	-68.2
Cc1nccn1CC(O)Cn1c2ccccc2c2ccccc21 (stereo not shown)	-24.1
O=C(NC1CCCc2c1cnn2-c1ccccc1F)c1ccccn1 (stereo not shown)	5.09
CCCN(CC(=O)Nc1ccccc1OC)C(=O)c1cc(S(=O)(=O)NCc2ccccc2)ccc1C	-2.38
CC(=O)c1cccc(NC(=O)C2CCCN(S(=O)(=O)c3cccc4nonc34)C2)c1 (stereo not shown)	13.9
Brc1nnc2n1-c1ccccc1Sc1ccccc1-2	-71.8
O=C(O)c1ccc2c(c1)nnn2C1CCCCC1	14.9
O=C(Nc1ccc(S(=O)(=O)Nc2ncccn2)cc1)c1nn(Cc2ccccc2)c(=O)c2ccccc12	-1.68
CCOP(=O)(OCC)C1(O)C(=O)Nc2ccccc21 (stereo not shown)	-6.02
O=C(NCC1CCN(c2ccc(S(=O)(=O)N3CCOCC3)cc2)CC1)c1ccc(Cl)cc1	-57.2
Cc1ccc(NC(=O)C2CC(=O)N(C(C)c3ccccc3)C2)cc1 (stereo not shown)	4.78
O=C(NCc1cccnc1)c1ccc(NC(=O)c2ccc([N+](=O)[O-])cc2)cc1	9.09
COCCN1C(=O)N[C@@H](c2cccs2)C(C(C)=O)=C1C	10.4

Structure (SMILES)	hERG current change (%, negative = inhibition) at 10uM [%]
O=C(CCCN1C(=O)/C(=C/c2cccs2)SC1=S)Nc1cccc(C(=O)O)c1	5.62
CCCNS(=O)(=O)c1ccc(CCC(=O)N2CCC(C)CC2)cc1	-2.41
O=C(CCc1nc2cccnc2n1Cc1ccccc1)N1CCOCC1	-39.4
COc1ccc(S(=O)(=O)/C(C#N)=C/Nc2cccc(OC)c2)cc1	11.2
CCC(=O)Nc1ccc(Cl)c(NC(=O)c2ccc(Br)o2)c1	-5.42
CCNc1nc(NCC)nc(N(C)/N=C/c2ccco2)n1	-10.7
COc1ccc(NC(=O)CN(C)C(=O)c2cccc(S(=O)(=O)N3CCN(c4ccccc4)CC3)c2)cc1	-3.62
CCOC(=O)N1CCC(NC(=O)CN2C(=O)CCSc3ccccc32)CC1	-2.52
COc1ccc(/C=N/NC(=O)c2ccc(Cl)cc2Cl)cc1COC(C)=O	-8.47
CC1=C(C#N)C(NC(=O)C2CCCCC2)(C(F)(F)F)C(=O)N1 (stereo not shown)	11.3
CCOc1ccccc1N(C(=O)c1ccco1)C(C(=O)NC1CCCC1)c1cccs1 (stereo not shown)	-23
Cc1ccc2c(COC(=O)CC3Sc4ccccc4NC3=O)cc(=O)oc2c1C (stereo not shown)	22.7
O=C(c1ccc(C(=O)N2CCCc3ccccc32)nc1)N1CCCc2ccccc21	-9.08
CCCCNc1ncnc2c1cnn2-c1ccc(C)cc1C	-21.7
CCN(CC)S(=O)(=O)c1ccc(S(=O)(=O)NCc2cccs2)cc1	7.17
CC(Oc1ccc(Cl)cc1)C(=O)N1CCCc2ccccc21 (stereo not shown)	7.39
O=C(CN1CCN(CC(=O)Nc2ccccc2Cl)CC1)Nc1ccc(F)c(F)c1	-78.2
CC(=O)c1cccc(N2Cc3ccccc3C2=NC(=O)CCl)c1	11.1
Clc1nccnc1N/N=C/c1ccc(Br)cc1	-50.3
CS(=O)(=O)N(Cc1ccc(F)cc1)Cc1nc2ccccc2c(=O)[nH]1	-0.244
COc1cccc(Cn2cccc(NC(=O)NCc3ccccc3)c2=O)c1	-3.25
O=C(O)CN1C(=O)NC2(CCOc3ccccc32)C1=O (stereo not shown)	5.8

Structure (SMILES)	hERG current change (%, negative = inhibition) at 10uM [%]
Cc1c(Cl)cccc1Nc1nc(NCCO)c2ccccc2n1.Cl	-27.2
Cc1ccc(NC(=O)C(Cc2ccccc2)n2cccc2)cc1 (stereo not shown)	3.37
c1ccc(CCCN2CCN(c3ccccn3)CC2)cc1	-51.7
CSc1c(CC(=O)Nc2ccccc2)n(Cc2ccccc2)c2ccccc12	6.9
COc1ccc(CN(C)C(=O)COC(=O)c2ccc3c(c2)OCO3)cc1OC	-3.84
COc1cccc(C2C(C(C)=O)=C(O)C(=O)N2Cc2ccco2)c1 (stereo not shown)	19.2
c1ccc(CCNc2nc3ccccc3s2)cc1	-3.17
COCCN(C(=O)CSc1nnc(-c2ccccc2F)n1N)c1c(N)n(Cc2ccccc2)c(=O)[nH]c1=O	5.14
COc1cc(/C=C2\SC(N)=NC2=O)ccc1OCC(=O)Nc1ccc(C)cc1	-5.51
O=C(NOC(=O)c1c(F)cccc1Cl)c1ccc(Cl)c(Cl)c1	17.8
COc1ccc(Cl)cc1N(C(=O)Nc1cccc(Cl)c1)C1=NCC(C)S1 (stereo not shown)	12.9
OCCc1ccc(O)cc1	12.4
Cc1nnc(NC(=O)c2ccc3ccccc3c2)s1	23
COc1ccc(S(=O)(=O)N(CC(=O)NN=C2CCN(C)CC2)c2cc(Cl)ccc2OC)cc1OC	7.51
O=C(OCc1cnc(Cl)s1)c1cccs1	3.18
Cc1ccc(N(C(=O)c2snc(C(N)=O)c2N)C(CC(C)C)C(=O)NC2CCCC2)cc1 (stereo not shown)	-19.5
COCCOc1cc(NC(=O)c2ccccc2)c(Cl)cc1Cl	-8.47
CCN(CCCNC(=O)CCNC(=O)Cn1cnc2ccccc2c1=O)c1ccccc1	-6.94
CCOc1ccc(C(Nc2ccc(C)cc2)P2(=O)OCC(C)(C)CO2)cc1 (stereo not shown)	4.67
O=C(Cc1ccccc1F)Nc1cc(Cl)ccc1N1CCCC1	15.2
COc1ccc(CCC(=O)NCCNC(=O)CCc2ccc(OC)cc2)cc1	12
O=C(NCCC(c1ccccc1)c1ccccc1)c1cccs1	-14.2

Structure (SMILES)	hERG current change (%, negative = inhibition) at 10uM [%]
OC[C@H]1O[C@@H](Oc2cc(O)cc(/C=C/c3ccc(O)cc3)c2)[C@H](O)[C@@H](O)[C@@H]1O	7.67
COc1ccc(C2C(O)C(c3c[nH]c4ccccc34)=NN2C(=O)CCl)cc1 (stereo not shown)	11.5
O=C(/C=C/c1cccc([N+](=O)[O-])c1)NCCN1CCOCC1	-2.6
N#Cc1c(NC(=O)c2ccc(-c3ccccc3[N+](=O)[O-])o2)sc2c1CCCC2	-1.1
O=[N+]([O-])C(/C=C(/Cl)[N+](=O)[O-])=C(N1CCCCC1)N1CCCCC1	-4.21
O=S(=O)(c1ccc(NCCOc2ccccc2)nc1)N1CCCC1	-21.3
COC(CNC(=O)C1CC(=O)N(CCc2ccc(C)cc2)C1)OC (stereo not shown)	7.72
NS(=O)(=O)c1ccc(C(=O)Nc2ccc(-c3nc4cccnc4s3)cc2)cc1	14.4
O=C1c2oc3ccccc3c(=O)c2C(c2cccc(F)c2)N1CCCO (stereo not shown)	-6.7
CCOC(=O)c1ccc(-n2[nH]c(-c3ccccc3)cc2=O)cc1	3.61
CCOc1ccc(OCCCC(=O)N(C)CC(=O)Nc2ccc(N3CCOCC3)cc2)cc1	-15.4
N#Cc1ccc(C2=CC(=O)C[C@H](c3ccc(F)cc3)C2)cc1	-72.1
CC(=O)Nc1ccc(S(=O)(=O)Nc2nc3n(n2)C(c2ccccc2)CC(=O)N3)cc1 (stereo not shown)	5.99
CCCC(=O)OCCNc1cc(Sc2nc3ccccc3[nH]2)c2nonc2c1[N+](=O)[O-]	2
O=C(NCCc1ccccc1)C1CCCN1S(=O)(=O)c1ccc(F)cc1 (stereo not shown)	2.24
COc1cc(C(=O)OC(C)CN2CCCCC2)cc(OC)c1OC.Cl (stereo not shown)	-4.43
Cc1nc(SCc2ccccc2)[nH]c(=O)c1CC(=O)OCC(C)C	15.5
Cc1cc(-n2cnc(-c3cn(C)nc3C)n2)no1	11
Cc1ccc(-c2ccc(CCC(=O)O)n2-c2ccc(O)cc2)cc1	15.1
O=C(CCc1nnc(CCCc2ccccc2)o1)NCCN1CCOC1=O	23.3
COc1ccc(NC(=O)CSc2n[nH]c(-c3ccco3)n2)cc1	-2.42
Cc1cccc(OCCCC(=O)Nc2ccc(N3CCOCC3)cc2)c1	13.5
